The text below walks through data of the RNAGym collection of RNA variant scans (doi:10.7554/elife.90254).

Read counts are not given, so values of variants with three or more changes are uncertain.

B1: LINE1-mini (parent)
chain: GGCAGAGCUCAACACAGCGUGGCAAAGUGGCUGUGGCUAGACUGCC

The series covers variants of B1. Kind of series: self-cleavage, relative activity (ratio to wild type); higher = more cleavage; in vitro, sequencing; the parent is a self-cleaving ribozyme.
Turning to G5A C31A G33U A41C, the self-cleavage came out at 0.06. As to G5A G19U U20G U32A, the self-cleavage was 0.08. Regarding G5A C10A A12G, the self-cleavage came to 0.

For the variant G5A C18U G19C G35U U38A, the self-cleavage amounted to 0.02.

Regarding G5A A12U G17A C18G C31G, the self-cleavage amounted to 0. For the variant G5A A6C G35C, the self-cleavage turned out to be 0.03. In the case of A4U C18G G22A G40A, the self-cleavage came to 0.03.

For A4U G5C C10A G17C G19A C23U A24G C42U, the self-cleavage came out at 0.01. Take G5A A11U C23U C42U: the self-cleavage stood at 0.41. Turning to A4U G27U U28G, the self-cleavage came to 0.08. The figure for A4U G22C G33C is 0.04. The figure for G5A G17U G22C G29U C31A is 0.09; for G5A U9G C18A C31U G40A it is 0.15; for G5A C10U A12U U28G C31U G35A it is 0.04.

A4U C18U C23U G36U: the self-cleavage came out at 0.05. The value for G5A G21U A24U A25C C31G G40U was 0.02. As for A4U G35U G40C, the self-cleavage came out at 0.08. The value for A4U G21U G40U was 0.09; that for A4U G5C C10G A12U G30A was 0.02.

Turning to A4U G19C U34A C45A, the self-cleavage was 0.06. On to G5A G30C C37G G40A, for which the self-cleavage is 0.04. Turning to G5A A14G G35C C37U, the self-cleavage was 0.02.

Regarding G5A G7A U20C A24U C46U, the self-cleavage was 0.3.

As to A4U G5U G21C A39G, the self-cleavage is 0.1.

With G5A A14U C15G C23U A24C, the self-cleavage stood at 0.3.

For G5A U9C U28G, the self-cleavage was 0.04.

Consider G5A A26G C37U, for which the self-cleavage was found to be 0.01. With G5A A26G C37A, the self-cleavage was 0.11. With A4U U9G C18A U28A C31A C37G G40A, the self-cleavage was 0.12. The figure for G5A C10A A11U C46A is 0.04; for G5A C10G G19A C23A G44A it is 0.01; for G5A C8A U9G it is 0.06. For the variant G5A C15A U20A, the self-cleavage came out at 0.03. Regarding A4U G17A G27A G30A, the self-cleavage is 0.44. On to G5A C8A G17A G19A G36U, for which the self-cleavage turned out to be 0.15. G5A C15G G36A C42U: the self-cleavage stood at 0.1.

In the case of G5A C15A G19U A41G, the self-cleavage is 0.01.

Regarding G5A A25U A39C A41G, the self-cleavage was 0.13.

A4U G17C G29A: the self-cleavage stood at 0.09. On to G5A C10U A11G G33C, for which the self-cleavage came out at 0.01.

Consider G5A C10G A11G G21A A26U G29U C42U, for which the self-cleavage stood at 0.01. With G5A A11C A41U C45G, the self-cleavage was determined as 0.01.

Regarding A4U U20A G22C, the self-cleavage is 0.24. The value for G5A A12C C15G C23U G27U was 0.01. In the case of A4U G19A C37U, the self-cleavage worked out at 0.31. Consider A4U U9A C23A, for which the self-cleavage stood at 0.11.

Turning to G5A A14G C18U G21U G36A, the self-cleavage is 0.14. Consider G5A C23A G27A U28A, for which the self-cleavage is 0.02. For the variant A4U G21U A26G, the self-cleavage was found to be 0.24. The figure for G5A C37U A39G is 0.04; for G5A A26G U38G it is 0.03. On to G5A C18A G44C, for which the self-cleavage worked out at 0.02. Regarding A4U G19A U20C C42A, the self-cleavage was 0.23.

On to G5A A11U C42A, for which the self-cleavage turned out to be 0.01. As for G5A C8U A24G, the self-cleavage was 0.5. Turning to A4U G5A G7U G40A, the self-cleavage was 0.12.

A4U G17U U28C U34G G36C: the self-cleavage turned out to be 0.06.

As for A4U U9A C13G G22A G29C G36U A39C, the self-cleavage worked out at 0.11.

For G5A G7C G21U, the self-cleavage is 0.12. On to G5A A16U A24C G29C G40U, for which the self-cleavage is 0.04. On to G5A C15A G21U, for which the self-cleavage was found to be 0.03. For the variant G5A A12U U32C, the self-cleavage came to 0.09. Turning to G5A C10U A39C, the self-cleavage came out at 0.08. With G5A G7U U9A C13A C18U, the self-cleavage came out at 0.04. As to G5A G22A G29C, the self-cleavage worked out at 0.11. The value for A4U U20C A25G G29A C42U C46U was 0. The figure for G5A G22U A41U is 0.22; for A4U G17C U20C it is 0.03.

Regarding G5A U20A G22C, the self-cleavage is 0.04.

G5A G7U G27A: the self-cleavage is 0.19. The value for G5A C13U A24U G44A was 0.06; that for G5A A6U C42A C45G was 0.06. Consider G5A C8U C18U G22C, for which the self-cleavage came out at 1.68.

Turning to A4U G36C A41U, the self-cleavage worked out at 0.03. For the variant G5A C23U U32A G35C C37U G40C, the self-cleavage turned out to be 0.05. For the variant G5A G17U U43C, the self-cleavage was determined as 0.03. Take G5A A14U G17U: the self-cleavage turned out to be 0.04. G5A C15U G22U G29C G30U U32C G40A: the self-cleavage was determined as 0.03. On to G5A G29A G35U, for which the self-cleavage was 0.04. The value for G5A G7A A11C was 0.02. As for G5A C10G A39G, the self-cleavage was determined as 0.02. On to A4U U34G G36A, for which the self-cleavage stood at 0.

Take G5A C15G A16C C23G: the self-cleavage was determined as 0.09.

Regarding G5A C8U G21C G36A, the self-cleavage was 0.31.

Consider G5A G40U C45A, for which the self-cleavage is 0.11. Turning to G5A C8U C10G A39U, the self-cleavage turned out to be 0.04. As for A4U G17A G40A, the self-cleavage turned out to be 0.05. The value for G5A A6U A26U was 0.13; that for G5A G19C A25U G35A G40U was 0.12. With G5A A16C G33C, the self-cleavage came out at 0.03. Take G5A G17C C18A U38C: the self-cleavage was found to be 0.03. In the case of G5A A6C C23A U38G, the self-cleavage was 0.02. For G5A C10U C15A C18U G36A, the self-cleavage was 0.08.

A4U G33A C45U: the self-cleavage turned out to be 0.18. As for G5A U9C G19C G36A A39G, the self-cleavage amounted to 0.01.

With A4U U9A C15A C18A, the self-cleavage is 0.31.

On to A4U G29U U38C, for which the self-cleavage worked out at 0.09. For A4U U32C C46U, the self-cleavage was determined as 0.03. On to G5A A6C G19C A26G G40U C45A, for which the self-cleavage was found to be 0.01. As to G5A G17C C31U, the self-cleavage was 0.05.

For G5A C18A C31G, the self-cleavage was found to be 0.03. For G5A A12G C31U G36A C45A, the self-cleavage worked out at 0.05.

As to A4U U32A G35A A39G, the self-cleavage is 0.09. As to G5A C13G G27C, the self-cleavage came out at 0. For G5A A6G U20A, the self-cleavage was 0.06.

As for G5A G19A C23U C31A, the self-cleavage amounted to 0.02. With A4U G19U G40A, the self-cleavage was 0.05. The figure for A4U G22C A24G is 0.07. G5A G27U G36A G40A: the self-cleavage was determined as 0.21. In the case of G5A C8A C18G, the self-cleavage was 0.23. As for A4U U9G C15U C18U G19A C23U C45G, the self-cleavage is 0.25. Consider G5A A6G A12C G21C G22C A39C A41G, for which the self-cleavage came out at 0. The figure for A4U C23A G36U is 0.06; for A4U U32G G33U it is 0.07. Turning to A4U C15U U28C C42G, the self-cleavage was determined as 0.01. In the case of A4U G5A G30U, the self-cleavage came out at 0.08. Take G5A A26G G29U G36U: the self-cleavage came to 0.11. In the case of G5A A6U U9A C15U A26C C37A, the self-cleavage was 0.13. The figure for G5A C8A C15U G36U is 0.41; for A4U G5U G36U it is 0.02. Turning to G5A C10A C23U G30C C37U, the self-cleavage turned out to be 0.01. On to G5A C10G C18G A26G C37A G44C, for which the self-cleavage is 0. As to G5A A39U A41G G44U, the self-cleavage turned out to be 0.07.

As to G5A A12C G29U, the self-cleavage came out at 0.07. In the case of A4U G19U A26U, the self-cleavage was found to be 0.03. The figure for G5A C8G A14G C23A G29U C46U is 0.02. Take G5A G17U U20A A24G U34C A39U: the self-cleavage was determined as 0.01.

Turning to G5A C15A A25U C45A C46A, the self-cleavage turned out to be 0.36.

On to A4U U32G G40U G44A, for which the self-cleavage was found to be 0.04. As for A4U C31G U34A, the self-cleavage is 0.02. For the variant G5A G29U G30U, the self-cleavage came out at 0.04. Take G5A A11G G33A: the self-cleavage was determined as 0.02.

As for G5A A12U G33U G40U, the self-cleavage stood at 0.04. With G5A G7A A12C G40A, the self-cleavage came to 0.11. Take G5A C10A C15U C37A: the self-cleavage came out at 0.01. As to G5A G7U A12G G19C G29A, the self-cleavage is 0.09. A4U G5C A6U A12G A39C: the self-cleavage stood at 0.01. Regarding G5A G17C G22C C46U, the self-cleavage came out at 0.04.

Regarding G5A C13G U32A U38G, the self-cleavage is 0.02. Consider G5A C8U G27C G40U, for which the self-cleavage worked out at 0.09. The value for G5A C10U G19U G22A was 0.09; that for G5A C31A A41U was 0.04.

In the case of G5A G7C C8G A11U, the self-cleavage worked out at 0.06. Turning to G5A G7A C18U C23A U32G, the self-cleavage is 0.18. The figure for A4U G5A C8A U32A C46U is 0.1; for A4U C18G G36A it is 0.21; for G5A A14C C15A U32C U34A G44U it is 0. With G5A U20A G22A G29A U32A G36A, the self-cleavage came out at 0.16.

On to G5A U9A A14C, for which the self-cleavage worked out at 0.11. With A4U C15G U43A, the self-cleavage was 0. For the variant A4U U9C C13G A25U C37U U38C, the self-cleavage was determined as 0.02.

On to G5A C15A C45G C46A, for which the self-cleavage is 0.02. The value for G5A C8A A12G A39U was 0.03; that for G5A A6U G21U C42A was 0.06. The figure for G5A A6U C13G A25U is 0.05; for G5A G7A G17C A39C A41U C42G it is 0.26. The figure for A4U C42U G44A is 0.19. With G5A G27U A39G G40A U43A, the self-cleavage worked out at 0.09. Consider G5A A12G U28A, for which the self-cleavage was 0.02. Turning to G5A C18A A41G, the self-cleavage was determined as 0.03. The value for G5A C8A A12U U34C G35U was 0.47; that for G5A U9C A41U was 0.03; that for G5A U20A C42A was 0.2. On to G5A G17U G27U C42A, for which the self-cleavage is 0.03. For G5A A6G A25G C31U C42U, the self-cleavage is 0.02.

Consider G5A A6C C10A G19C G29A, for which the self-cleavage stood at 0.03.

A4U G17C A24C: the self-cleavage turned out to be 0.06.
